{"source": "patent US20180043012A1", "key": {"[1]": {"target": "mouse MGL2 (CLEC10A orthologous mouse receptor protein) (mouse)", "test": "SPR, MGL2 immobilized on CM3 chip, fit of the dissociation phase alone"}, "[2]": {"target": "T1, mouse MGL1 (CLEC10A orthologous mouse receptor protein) (mouse) (UniProt P49300)", "T1 sequence (looked up)": "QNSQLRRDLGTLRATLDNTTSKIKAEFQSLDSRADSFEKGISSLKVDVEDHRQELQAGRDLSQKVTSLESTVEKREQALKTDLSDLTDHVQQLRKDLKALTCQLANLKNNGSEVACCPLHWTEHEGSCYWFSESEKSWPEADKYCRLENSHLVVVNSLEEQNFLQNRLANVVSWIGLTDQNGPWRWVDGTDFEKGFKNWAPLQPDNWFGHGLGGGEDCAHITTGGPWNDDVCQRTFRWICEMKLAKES", "test": "SPR, MGL1 immobilized on CM3 chip, steady state affinity fit at report point 20 s after end of injection"}, "[3]": {"target": "mouse MGL2 (CLEC10A orthologous mouse receptor protein) (mouse)", "test": "SPR, MGL2 immobilized on CM3 chip, steady state affinity fit at report point 20 s after end of injection"}, "[4]": {"target": "T2, recombinant human CLEC10A, extracellular domain (R&D Systems) (human) (UniProt Q8IUN9)", "T2 sequence (looked up)": "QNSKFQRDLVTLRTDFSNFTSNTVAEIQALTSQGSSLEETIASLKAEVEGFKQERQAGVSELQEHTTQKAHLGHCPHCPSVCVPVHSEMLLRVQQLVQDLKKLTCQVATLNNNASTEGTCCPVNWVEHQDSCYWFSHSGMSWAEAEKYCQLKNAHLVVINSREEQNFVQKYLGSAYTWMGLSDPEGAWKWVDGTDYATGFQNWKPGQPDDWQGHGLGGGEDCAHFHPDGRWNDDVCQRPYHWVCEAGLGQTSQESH", "test": "SPR, CLEC10A immobilized on CM3 chip, steady state affinity fit at report point 20 s after end of injection"}}}
{"substance": "purified monomeric human VWF (von Willebrand factor) (a stretch of the chain, sequence not shown) (ligand)", "values": [{"measurement": "koff", "setting": "[1]", "value": 0.000381, "unit": "s⁻¹"}, {"measurement": "R50% (affinity constant)", "setting": "[2]", "value": 3.43, "unit": "µM"}, {"measurement": "R50% (affinity constant)", "setting": "[3]", "value": 3, "unit": "µM"}, {"measurement": "R50% (affinity constant)", "setting": "[4]", "value": 1.47, "unit": "µM"}]}
